Measured values: PubChem BioAssay AID2112 (National Center for Advancing Translational Sciences (NCATS), 2009)
The campaign covered roughly 240,000 compounds. About 15 (0.006%) were called active. Inconclusive means that the source gave no clear call. Such entries were picked first, then a sample of the others. Calls come from the whole dose curve; as a rule, active = well fitted inhibition curve with a large enough effect; inconclusive = small, poorly fitted or top-dose-only effect, or effect the other way, or another doubt; inactive = no such curve, though single readings can be large or run the other way. Potencies of inconclusive entries are left out as doubtful fits.
Potency is the fitted concentration of half-maximal effect; tags give direction and shape of the fitted curve.
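Throughout, for activity change, negative = inhibition: 0% = enzyme with vehicle and -100% = no enzyme basal signal.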

These compounds were tested against Lysosomal alpha-glucosidase (Homo sapiens) (UniProt P10253) (assay: qHTS Assay for Inhibitors and Activators of Human alpha-Glucosidase From Spleen Homogenate). Settings: 4-MU-alpha-glucoside fluorescence; series mostly up to 79.9 µM; activity change, negative = inhibition: at the top concentration.
How it was run: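 Human spleen homogenate (1 ug) with 4-methylumbelliferyl-alpha-D-glucopyranoside (1 mM final) in 50 mM citrate/phosphate pH 5.0, 0.01% Tween-20; 40 min at 37 C. Stopped at pH 10; 4-MU fluorescence Ex 365/Em 440 nm; AC50 by Hill fit.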
For CC1CC(OP(O)(=S)c2ccc(N(C)C)cc2NC(=O)c2cccs2)CC(C)(C)C1 (stereo unspecified), the Potency was inconclusive [inhibitor, partial curve].
In the case of Cc1cc(-c2ccccc2)nc2[nH]n(-c3ccccc3)c(=O)c12, the “activity change, negative = inhibition” value is reported as inactive: -1.96%.
COc1ccc(NC(=S)NNC(=S)Nc2cccc(C(F)(F)F)c2)cc1 was tested, and the “activity change, negative = inhibition” value was inactive: 4.24%.
In the case of CN(C)C(=O)COC(=O)c1cc(Cl)cc(Cl)c1N, the Potency is reported as inconclusive [activator, partial curve].
In the case of CS(=O)(=O)Nc1ccc(C2=NN(C(=O)C3CCCCC3)C(c3cccs3)C2)cc1 (stereo unspecified), the Potency is reported as inconclusive [activator, single point].
With CCc1cc2c(=O)c(-c3nc4ccccc4n3C)c(C)oc2c(CN2CCOCC2)c1O the Potency was inconclusive [inhibitor, partial curve, poor fit].
CNC(=O)c1cc2ccc(OC)cc2oc1=O was tested, and the Potency was inconclusive [activator, partial curve].
COCCN1Cc2cc(=O)n3c([nH]c4ccccc43)c2C1=N was tested, and the Potency was inconclusive [activator, partial curve].
For CCOc1ccc(NC(=S)NN(C)C(=S)Nc2ccc(OCC)cc2)cc1, the Potency was inconclusive [inhibitor, partial curve].
O=S(=O)(/N=C(/Nc1ccccc1F)c1ccccc1)c1ccccc1 was tested, and the “activity change, negative = inhibition” value was inactive: -2.23%.
With CCCCN(CC)CCCNC(=O)c1cc2cc3ccc(OC)cc3nc2o1 the Potency was inconclusive [activator, single point].
COc1ccc(/C=c2\s/c(=C/C(=O)c3ccc(C)cc3)[nH]c2=O)cc1OC was tested, and the Potency was inconclusive [inhibitor, partial curve].
In the case of CCC(C)NC(=O)c1cc2cc3ccc(OC)cc3nc2s1 (stereo unspecified), the Potency is reported as inconclusive [activator, single point].
O=S(=O)(NCCCO)c1ccc2c(c1)Cc1cc(S(=O)(=O)NCCCO)ccc1-2 was tested, and the “activity change, negative = inhibition” value was inactive: -11.5%.
In the case of O=C(NCCn1cc(SCc2ccccc2)c2ccccc21)c1c(F)cccc1F, the “activity change, negative = inhibition” value is reported as inactive: -5.8%.
CC(C)Cn1c(O)c(N=NC(=O)c2cccc(S(=O)(=O)N3CCCCC3)c2)c2ccccc21 was tested, and the “activity change, negative = inhibition” value was inactive: 1.79%.
For CC(NC(=O)c1ccc(N(C)C)cc1)c1ccc(F)cc1 (stereo unspecified), the “activity change, negative = inhibition” value was inactive: 3.87%.
With COC(=O)CSc1ccc(C#N)c(SCC(=O)OC)c1 the Potency was inconclusive [activator, partial curve].
For Clc1ccc(N2N=C(c3cccs3)CC2c2ccco2)cc1 (stereo unspecified), the Potency was inconclusive [activator, single point].
For CC(=O)NC(c1cccs1)c1cc([N+](=O)[O-])c2cccnc2c1O (stereo unspecified), the Potency was inconclusive [inhibitor, single point].
CNc1ncnc2c1ncn2[C@H]1C[C@H](OP(=O)(O)O)[C@@H](COP(=O)(O)O)O1 was tested, and the Potency was inconclusive [inhibitor, single point].
For OC[C@@H]1[C@@H](c2ccc(F)cc2)C(c2cccc(Cl)c2)=NN1c1ccccc1, the Potency was inconclusive [activator, partial curve].
With Cc1cc(=O)oc2cc(O)ccc12 the Potency was inconclusive [activator, single point].
In the case of CN(C(=O)NC(=O)C1=C(N2CCOCC2)/C(=C/c2ccccc2)CC1)S(C)(=O)=O, the Potency is reported as inconclusive [activator, single point].
CCCN1Cc2cccc(C(=O)NCc3ccc4c(c3)OCO4)c2C1=O was tested, and the Potency was inconclusive [inhibitor, partial curve, poor fit].
In the case of O=C(CSc1nnc(-c2ccccc2)o1)N1CCc2ccccc2C1, the Potency is reported as inconclusive [inhibitor, partial curve, poor fit].
For Oc1ccc(Oc2ccc3c(C(F)(F)F)cc(C(F)(F)F)nc3n2)cc1, the Potency was inconclusive [inhibitor, full curve, poor fit].
COc1ccccc1[C@H]1C(c2cccc(C)c2)=NN(c2ccccc2)[C@@H]1CO was tested, and the Potency was inconclusive [activator, partial curve].
For Cc1nn(-c2ccccc2)c2c1cc1c(=O)n(C)c(=O)nc-1n2-c1ccccc1F, the Potency was inconclusive [activator, partial curve].
For COC(=O)C1=CN(CC2CCCO2)C=C(C(=O)OC)C1c1cc(OC)c(OC)c(OC)c1 (stereo unspecified), the Potency was inconclusive [activator, partial curve].
For COCC(C)OC(=O)c1c(N)n(CCCN2CCOCC2)c2nc3ccccc3nc12 (stereo unspecified), the Potency was inconclusive [activator, partial curve].
COc1cccc2c(=O)c3c(cnn3C)n(C)c12 was tested, and the Potency was inconclusive [activator, single point].
For CCC(CO)[n+]1c(C)cc(/C=C2\Sc3ccccc3N2Cc2ccccc2)cc1C (stereo unspecified), the Potency was inconclusive [inhibitor, partial curve].
For Cc1cccc(C2=NN(c3ccccc3)[C@H](CO)[C@H]2c2ccc(F)cc2)c1, the Potency was inconclusive [activator, single point].
Cc1cc2ccc(=O)oc2cc1OC[C@@H](O)C(C)(C)O was tested, and the Potency was inconclusive [activator, partial curve].
With COC(=O)c1ccc(-c2cc(C(=O)O)c3cc4c(cc3n2)OCCO4)cc1 the Potency was inconclusive [activator, single point].
In the case of N#Cc1cc2c(=O)n3ccccc3nc2n(-c2ccc(Cl)cc2)c1=O, the Potency is reported as inconclusive [activator, single point].
COc1ccc(-c2cn3cccnc3n2)cc1F was tested, and the Potency was inconclusive [activator, partial curve].
For CCOC(=O)c1cnc2sc3c(n2c1=O)CCCC3, the Potency was inconclusive [activator, single point].
With CCC(=O)Nc1cccc(NC(=S)NC(=O)Cc2ccccc2)c1 the Potency was inconclusive [inhibitor, full curve, poor fit].
For COc1ccc(CC(N)C(=O)N[C@H]2[C@@H](O)[C@H](n3cnc4c(N(C)C)ncnc43)O[C@@H]2CO)cc1 (stereo partly specified), the “activity change, negative = inhibition” value was inactive: -0.42%.
